Test results: PMC4336329 (PLoS ONE, 2015)
Among all 310,000 compounds or so, about 2,200 (0.71%) showed an effect of 50% or more. Effects have a minus sign here. The list shows a part of the results.

What follows are compounds tested against human ether-à-go-go-related gene (hERG) potassium channel (human, UniProt Q12809) (assay: primary screen, population patch clamp on CHO cells stably expressing hERG).
human ether-à-go-go-related gene (hERG) potassium channel, sequence (Q12809 whole entry, looked up): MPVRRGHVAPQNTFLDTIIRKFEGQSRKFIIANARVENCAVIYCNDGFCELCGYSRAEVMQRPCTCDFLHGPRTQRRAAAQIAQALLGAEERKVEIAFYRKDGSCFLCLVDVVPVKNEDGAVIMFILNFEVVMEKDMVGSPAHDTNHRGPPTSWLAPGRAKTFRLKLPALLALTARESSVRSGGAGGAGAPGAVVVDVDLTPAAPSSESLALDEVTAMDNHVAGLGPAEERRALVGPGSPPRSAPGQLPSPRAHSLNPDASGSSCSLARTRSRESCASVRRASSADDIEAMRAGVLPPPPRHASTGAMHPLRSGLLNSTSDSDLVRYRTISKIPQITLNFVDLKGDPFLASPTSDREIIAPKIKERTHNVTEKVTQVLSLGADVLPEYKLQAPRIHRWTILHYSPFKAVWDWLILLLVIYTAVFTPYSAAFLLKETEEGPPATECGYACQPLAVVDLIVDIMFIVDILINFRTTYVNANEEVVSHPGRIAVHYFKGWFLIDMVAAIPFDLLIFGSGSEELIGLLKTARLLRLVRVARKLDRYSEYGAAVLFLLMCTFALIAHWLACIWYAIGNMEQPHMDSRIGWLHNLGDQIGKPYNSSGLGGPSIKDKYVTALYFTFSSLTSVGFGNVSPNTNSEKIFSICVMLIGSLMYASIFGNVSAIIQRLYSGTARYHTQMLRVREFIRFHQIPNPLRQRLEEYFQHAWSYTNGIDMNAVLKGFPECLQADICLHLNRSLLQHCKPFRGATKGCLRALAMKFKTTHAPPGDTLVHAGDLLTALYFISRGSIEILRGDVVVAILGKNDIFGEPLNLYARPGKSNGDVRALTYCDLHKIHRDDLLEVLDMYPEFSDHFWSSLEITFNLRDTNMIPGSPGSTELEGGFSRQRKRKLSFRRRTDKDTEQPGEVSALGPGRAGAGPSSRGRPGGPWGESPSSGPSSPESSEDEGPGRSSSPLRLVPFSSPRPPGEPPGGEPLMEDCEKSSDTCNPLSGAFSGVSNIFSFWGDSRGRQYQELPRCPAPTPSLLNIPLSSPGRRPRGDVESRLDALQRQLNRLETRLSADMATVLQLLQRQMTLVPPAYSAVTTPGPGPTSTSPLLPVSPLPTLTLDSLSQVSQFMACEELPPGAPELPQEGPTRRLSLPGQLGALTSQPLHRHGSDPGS

SMILES	hERG current change (%, negative = inhibition) at 1uM [%]
CCO[C@@H]1OC(C(=O)O)=C[C@H](c2ccc(C(F)(F)F)cc2)[C@H]1CCCO	13.3
COc1ccc(-c2ccc(SCC(=O)Nc3nnc(C)s3)nn2)cc1	23.2
Cc1cccc(-n2cccc2)c1C#N	0.924
O=S(=O)(c1ccccc1)c1nc(-c2ccccc2)oc1NCc1cccnc1	10.6
CN(c1ccc(F)cc1)S(=O)(=O)c1ccc2[nH]cc(C(=O)O)c(=O)c2c1	14.4
CN1C(=O)CSc2ccc(NC(=O)NCc3ccco3)cc21	14.8
Cc1ccccc1-c1nc2ccccc2c(=O)n1C	14.9
COCCCn1c(SC(C)C(=O)NC2CC2)nc2ccccc2c1=O (stereo not shown)	-1.47
CC1(C)CCC[C@]2(C)[C@H]3CC(=O)O[C@]3(C)CC[C@@H]12	8.28
O=C(CN1C(=O)c2ccccc2S1(=O)=O)NCc1ccccc1	14.3
COc1cccc2cc(C(=O)NNC(=O)c3ccc(Br)cc3)c(=O)oc12	12.6
NC(=O)C(c1cccc(Cl)c1)c1ncc(C(F)(F)F)cc1Cl (stereo not shown)	16.4
Cc1sc2nc(CSC(C)C(=O)Nc3cc(S(C)(=O)=O)ccc3Cl)[nH]c(=O)c2c1C (stereo not shown)	14.4
O=C(Cc1ccc(Cl)cc1)OCC(=O)c1ccc[nH]1	4.96
O=C(Oc1cccc(NC(=O)c2ccccc2Cl)c1)c1ccc([N+](=O)[O-])cc1	12.4
O=C(Nc1cccc(C(F)(F)F)c1)Nc1ccon1	8.9
CCOCC(=O)N1CCc2ccccc21	1.69
Nc1ncn([C@H]2C[C@H](O)[C@@H](CO)O2)c(=O)n1	24.5
COc1cc2c(cc1NC(=O)CN(C)Cc1ccc(OC)c(OC)c1)oc1ccccc12	11.8
COc1ccc2c(c1)OC[C@H]1[C@H]2N2C(=O)c3cc(OC)ccc3NC(=O)[C@@]2(C)[C@H]1c1ccccc1	5.36

SMILES	hERG current change (%, negative = inhibition) at 1uM [%]
O=[N+]([O-])c1ccc(C[n+]2cccc3ccc4cccnc4c32)cc1.[Br-]	-33.1
COc1ccc(-c2csc3ncnc(N4CCN(c5ccc(OC)cc5)CC4)c23)cc1	4.63
O=C(c1cc(-c2ccccc2)on1)N1CCC2(CC1)OCCO2	10.2
Cc1ccccc1OC(=O)c1cccc(S(=O)(=O)N2CCN(C)CC2)c1	4.58
CCCCn1c(S(=O)(=O)O)nc2ccccc21	16.8
CCOc1ccc(C(O)(c2ccccc2)C(CN2CCCC2)c2ccccc2)cc1.Cl (stereo not shown)	3.98
COc1ccc(OC)c(NC(=O)NCCCCc2ccccc2)c1	4.57
CC(Nc1cc(N2CCN(S(C)(=O)=O)CC2)ccc1[N+](=O)[O-])c1ccccc1 (stereo not shown)	7.96
Cc1ccc(CN/C=C/C(=O)c2ccc(Br)cc2)cc1	-3.93
C=CCNc1nnc(-c2ccncc2)s1	-1.86
CCc1ccc(CNc2ccc(O)cc2)cc1	12.5
CCCC1O[C@@H]2C[C@H]3[C@@H]4CCC5=CC(=O)C=C[C@]5(C)[C@H]4[C@@H](O)C[C@]3(C)[C@]2(C(=O)CO)O1 (stereo partly shown)	8.4
c1ccc2c(c1)nc(-c1ccncc1)n1nnnc21	-5.2
O=C1CC(Nc2ccc3ccccc3c2)C(=O)N1Cc1ccccc1 (stereo not shown)	13.6
CCOc1ccc(-c2nnc(-c3ccco3)o2)cc1	3.85
CN1CCN(NC(=O)C23CC4CC(CC(C4)C2)C3)CC1.Cl	-17.1
CCc1ccccc1OCC(=O)Nc1ccc2c(c1)OCCO2	0.603
CC(C)CCn1c(=O)c2ccccc2n2c(=S)[nH]nc12	15.6
COc1ccc(S(=O)(=O)N2CCN(Cc3ccc4c(c3)OCO4)CC2)cc1F	19.7
CCCCOc1ccc(C2C3CN(C(=O)OCC)CC=C3C(C#N)=C(N)C2(C#N)C#N)cc1OC (stereo not shown)	13.3

SMILES	hERG current change (%, negative = inhibition) at 1uM [%]
COc1ccc(CCN2CC(C(=O)NCc3cnn(C(C)C)c3)CCC2=O)cc1 (stereo not shown)	17.5
O=C(CSc1nn(-c2ccccc2)c(=S)s1)Nc1ncccn1	12.2
O=C(CSCCO)Nc1cccc(C(F)(F)F)c1	-7.28
COc1ccc(CNC(=O)CN(C(=O)CCC(=O)Nc2ccccn2)c2cc(C)ccc2C)cc1	5.61
Cc1ccc(C)c(NC(=O)C2CC3CCC2C3)c1 (stereo not shown)	8.82
COc1cc(NC(=O)COC(=O)CSc2ccc3ccccc3c2)c(C)cc1[N+](=O)[O-]	-0.202
CCc1nccn1-c1cc(C(C)(C)C)nc2c(-c3ccc(Cl)cc3)cnn12	12.4
O=C(NCCc1ccc(Cl)cc1)C1CCN(c2cnccn2)CC1	-7.01
Cc1ccccc1Nc1nc(-c2sc(NC(=O)c3cccc(Cl)c3)nc2C)cs1	10.5
c1ccc(-c2cnc(-c3ccccc3)nn2)cc1	15.2
Cc1ccc2cccc(OCC(=O)N3CCc4ccccc43)c2n1	8.81
CC(OC(=O)c1nc(Cl)ccc1Cl)C(=O)Nc1ccccc1F (stereo not shown)	14.2
O=C(Nc1cccc(Cl)c1)OCc1cncs1	3.01
CC1(CC(=O)O)SC(=O)NC1=O (stereo not shown)	-7.21
COCCN1C(=O)C(O)=C(C(C)=O)C1c1ccc(F)cc1 (stereo not shown)	-10.7
COc1ccc(OC)c(NC(=S)NCc2cccnc2)c1	11.8
Cc1ccc(S(=O)(=O)CC(=O)c2ccc(C(C)(C)C)cc2)cc1	2.43
OCC(O)/C=N/Nc1nc2ccccc2s1 (stereo not shown)	9.56
